This passage reports survival results from PubChem BioAssay AID463173 (ICCB-Longwood Screening Facility, Harvard Medical School, 2010).

In all, about 52,000 compounds went through this assay and about 4,300 (8.3%) were called active. No stated cut-off is given here; in the data, active means survival mostly below about 52% (no sharp cut-off); inactive means mostly above about 56%. The list shows a part of the results.

In this assay the test system is DeltatarO mutant. Briefly: growth inhibition of S. aureus wild type versus tarO mutant, primary screen, teichoic acid synthesis inhibitors, RN4220, OD600 (AID 463173). The note with it: OD600, 18 h, stronger effect = lower value, screened at 18.75 µg/mL (by protocol).
On to `COc1ccccc1NC(=O)Cn1cc(S(=O)(=O)Cc2ccccc2)c2ccccc21`, for which the survival was inactive: 76%. For the compound `CC(C)NC(=O)C1CC(c2ccccc2O)=NO1` (centres undefined), the survival is inactive: 93%. As for `CCN(CC)c1nc2ccccc2nc1C(=O)Nc1ccc(C(C)=O)cc1`, the figure is inactive: 78%.

For the compound `Cc1ccc(C)c(NC(=O)CN(C)S(=O)(=O)c2cccc3nsnc23)c1`, the survival was inactive: 88%. Next, `Cc1ccc(-n2nc(C(=O)Nc3ccc(F)cc3F)c3c4ccccc4n(C)c3c2=O)cc1`: inactive: 91%; `Cc1cccc(N(C)c2nc3ccc(C(=O)c4ccccc4)cc3n3c(C)nnc23)c1`: inactive: 115%. As for `COc1ccc(Cc2nc3ccc(C(=O)NCc4ccccc4C)cc3o2)cc1`, the figure is inactive: 95%. For the compound `COc1ccc(NC(=O)CN2C(=O)CC(c3ccc(C)c(C)c3)=Nc3ccccc32)cc1OC`, the survival was inactive: 67%. As for `CCC(CC)C(=O)Nc1ccc2nc(SCC(=O)N3CCCC3)sc2c1`, the survival is inactive: 99%. On to `CCc1cccc(C)c1NC(=O)c1cc(S(=O)(=O)N(Cc2ccc(C(=O)OC)cc2)Cc2ccc(OC)c(OC)c2)ccc1F`, for which the survival was inactive: 76%. As for `Cc1ccccc1Oc1nc2ccccn2c(=O)c1/C=C(\C#N)c1nc2ccccc2[nH]1`, the figure is inactive: 72%; as for `CCN(CC)CCNC(=O)Cn1ncc2c3ccccc3n(Cc3ccc(Cl)cc3)c2c1=O`, inactive: 137%; as for `Cc1ccc(-c2csc(-c3nc(-c4ccc(Br)s4)cs3)n2)cc1`, inactive: 82%. Next, `COc1ccc(NC(=O)Cn2nnc(C(=O)NCc3cccs3)c2N)cc1`: inactive: 95%; `Cc1ccc(NC(=O)CSc2nc(=O)n(Cc3cccnc3)c3c2CCC3)cc1F`: inactive: 67%. On to `Cn1c(=O)[nH]c(=O)c2c1nc(N1CCOCC1)n2Cc1ccccc1`, for which the survival was inactive: 167%. `CCOC(=O)Cc1ccc(NC(=O)Nc2c[nH]c(=O)[nH]c2=O)cc1`: the survival was inactive: 89%.

For `CCc1cccc(NC(=O)CCc2nc3cccnc3n2Cc2ccc(OC)cc2)c1`, the survival was inactive: 69%.

Consider `COc1cccc(-c2cc(C#N)on2)c1OC`, for which the survival was inactive: 78%. As for `NC(=S)C(=S)N1CCOCC1`, the figure is inactive: 110%. For `CC(C)CCNC(=O)CN1C(=O)CSc2ccc(S(=O)(=O)N3CCC(C)CC3)cc21`, the survival is inactive: 72%. As for `COc1cccc(C(=O)N(Cc2cccnc2)Cc2cc3cc(C)cc(C)c3[nH]c2=O)c1`, the survival is inactive: 81%. For `Cc1ccc2nc(-c3cccs3)c(Nc3c(C)cccc3C)n2c1`, the survival was active: 35%. Next, `CN(C)c1ccc(/C=C/c2nc(-c3ccccc3O)n(-c3ccccc3)n2)cc1`: active: 42%. On to `O=C(Nc1cccc(NC(=O)C2CCCO2)c1)c1ccco1` (centres undefined), for which the survival was inactive: 103%. Regarding `Cc1c(C(=O)NCc2ccc(F)cc2)oc2ccc(S(=O)(=O)N3CCCCC3)cc12`, the survival was inactive: 82%. Next, `CCOC(=O)C1CCCN(c2nc3c(S(=O)(=O)c4ccc(CC)cc4)nnn3c3ccsc23)C1` (centres undefined): inactive: 51%; `CCCCc1noc(-c2ccc(OC(=O)c3ccccc3)cc2)n1`: inactive: 93%. As for `Cc1ccc2c(c1)c1c(c(=O)n(-c3cccc(Cl)c3)c(=O)n1CC(=O)NCC1CCCO1)n2C` (centres undefined), the figure is inactive: 72%; as for `COc1ccc(NC(=O)[C@H]2O[C@@H]3OC(C)(C)O[C@@H]3[C@H]3OC(C)(C)O[C@H]32)c(OC)c1`, inactive: 91%. For the compound `Cc1c(C)n(CC(O)CNCc2ccco2)c2ccccc12` (centres undefined), the survival is inactive: 90%. Consider `COc1cc(C(=O)NCC(c2ccc3c(c2)OCO3)N2CCOCC2)cc(OC)c1OC` (centres undefined), for which the survival was inactive: 57%.

Regarding `CCc1cccc(NC(=O)C2CCCN(c3ncnc4onc(-c5ccc(F)cc5)c34)C2)c1` (centres undefined), the survival is inactive: 95%.

For `COc1ccc(-c2noc(CSCC(=O)Nc3cc(OC)c(OC)c(OC)c3)n2)cc1OC`, the survival was inactive: 96%. Next, `CCn1cc(C(=O)OCC(=O)Nc2ccc(C)c(Cl)c2)c(=O)c2ccc(C)nc21`: active: 63%; `CCc1nn(C)c(N)c1C`: inactive: 83%. As for `CCN1CCSc2ccc(C(=O)NCc3ccc(OC(C)C)cc3)cc21`, the figure is inactive: 62%; as for `O=C(N/C(=C\c1ccc(O)cc1)C(=O)N1CCCCC1)c1ccccc1`, inactive: 79%; as for `CCOc1ccc(-c2cc3c(=O)n(CC(=O)NCc4ccc(C)cc4)ccn3n2)cc1`, inactive: 99%. Next, `CCOc1ccc(NC(=O)CCC(=O)Nc2cc(OC)c(NC(=O)c3ccco3)cc2OC)cc1`: inactive: 76%; `CN(C(=O)CCc1nc(-c2ccccc2F)no1)c1ccc(Cl)cc1`: inactive: 56%; `O=S(=O)(c1ccc(OC(F)(F)F)cc1)N1CCC(c2nnnn2-c2ccc(F)cc2)CC1`: inactive: 71%. As to `CCCCN1CC(c2nc3ccccc3n2CCCCOc2cc(C)ccc2C)CC1=O` (centres undefined), the survival was active: 15%. As for `O=C(CS(=O)(=O)c1cccc2nsnc12)Nc1ccccc1Cl`, the figure is inactive: 71%.

Turning to `COc1ccc(N(Cc2cc3ccccc3[nH]c2=O)C(=O)c2cccc(Cl)c2)cc1`, the survival is inactive: 87%. Next, `CCOC(=O)Cc1ccc(NC(=O)NCc2c(-n3cccc3)sc3c2CCCC3)cc1`: inactive: 88%; `CC(=O)N1c2ccccc2CC1C(=O)N1CCN(c2ccccc2)CC1` (centres undefined): inactive: 101%. Turning to `CN1CCCC(OC(=O)c2ccc(F)cc2)C1` (centres undefined), the survival is inactive: 87%.

With `Cc1ccc(NC(=O)c2c(C)cc(C)nc2SCC(=O)Nc2ccc(Br)cc2)cc1`, the survival is active: 40%.

`Cc1ccc(C(=O)N/C(=C/c2ccccc2)C(=O)NCc2ccco2)cc1`: the survival is inactive: 95%. Consider `COc1cccc(-n2ccnc2SCC(=O)Nc2c(C)cc(C)cc2C)c1`, for which the survival is inactive: 97%. Take `CCCCNC(=O)c1ccc2c(c1)N(Cc1ccc(F)cc1)C(=O)c1ccccc1S2=O` (centres undefined): the survival was inactive: 65%. For `Cc1ccc(NC(=O)/C=C\C(=O)N(c2ccc(C(C)C)cc2)C(C(=O)NCc2ccco2)c2ccc(Cl)cc2)cc1` (centres undefined), the survival was inactive: 89%. `CCSc1ncc(Cl)c(C(=O)N2CCN(c3ccccc3OC)CC2)n1`: the survival is inactive: 76%. As for `CCOCCCNC(=O)c1ccc(-n2c(-c3ccccc3)cc3c2CCCC3)cc1`, the figure is inactive: 69%. `O=C(/C=C/c1ccccc1)Nc1cc(-c2nc3cc(Cl)ccc3o2)ccc1Cl`: the survival is active: 46%. As for `Cc1cccc(OCC(=O)Nc2cccc(OCc3cc(=O)n4cccc(C)c4n3)c2)c1`, the figure is inactive: 109%. Consider `CN1CCC(N(Cc2ccc3c(c2)OCO3)C(=O)c2cn(Cc3ccccc3)c3ccsc23)CC1`, for which the survival is inactive: 110%. As for `CC1CCCN(C(=O)c2cc3ccc4cccnc4c3[nH]2)C1` (centres undefined), the figure is inactive: 92%; as for `CCOc1ccc(N2CC(NC(=O)c3ccco3)CC2=O)cc1` (centres undefined), inactive: 86%. Next, `Cc1ccc(-n2c(C)cc(C(=O)C(=O)Nc3ccccc3)c2C)c(C)c1`: inactive: 91%; `COc1ccc(CCNC(=O)CCn2c(=O)c3ccccc3n(Cc3ccccc3F)c2=O)cc1OC`: active: 93%; `Cc1cccc(C(=O)OCc2cc(=O)n3ccsc3n2)c1`: inactive: 84%. Next, `COc1ccc(Cn2ccc3nc(C)c(C(=O)Nc4ccc(OC)cc4)cc3c2=O)cc1`: inactive: 89%; `CC(C)(C)c1cc(C(F)(F)F)nc(SCCNC(=O)c2cnn3cccnc23)n1`: inactive: 80%.

With `COc1ccc(CNC(=O)C2CCN(S(=O)(=O)c3c(C)noc3/C=C/c3ccccc3F)CC2)cc1`, the survival is inactive: 85%.

Take `O=C(Cn1ncn2c(cc3sccc32)c1=O)NCCc1ccccc1`: the survival is inactive: 91%.

Regarding `COc1ccc(CCNC(=O)CCc2c(C)c3cc4c(C)c(C)oc4cc3oc2=O)cc1OC`, the survival is inactive: 103%. Next, `Cc1ccc2c(=O)cc(C(=O)Nc3ccc(S(=O)(=O)N(C)c4ccccc4)cc3)oc2c1C`: active: 50%. Next, `Cc1ccc(-c2nc3c(c(SCc4ccc(Br)cc4)n2)Cc2c(CO)cnc(C)c2O3)cc1`: inactive: 67%. `O=C(CSc1nc2c([nH]c3ccccc32)c(=O)n1-c1ccc(Cl)cc1)N1CCc2ccccc21`: the survival is inactive: 67%. Regarding `O=C(Nc1ccccc1)NC1CC2CCC(C1)N2Cc1nnnn1Cc1ccc2c(c1)OCO2` (centres undefined), the survival is inactive: 81%. `CSc1cccc(NC(=O)c2cnn(-c3ccc(F)cc3)c2-n2cccc2)c1`: the survival is inactive: 84%. Turning to `CCSc1nn(CC(=O)Nc2cccc(CC)c2)c(N)c1S(=O)(=O)c1ccccc1`, the survival is inactive: 101%.

Consider `COCCCNC(=O)C1CCN(Cc2cc3ccccc3n2Cc2ccccc2C)CC1`, for which the survival is inactive: 71%. For the compound `Cc1oc(-c2ccc(Cl)cc2)nc1CN1CCCC(C(=O)NCCc2ccc(Cl)cc2)C1` (centres undefined), the survival is inactive: 54%. Take `Nc1ncnc2c1c1nc3ccccc3nc1n2CCc1ccccc1`: the survival is inactive: 88%. As for `Cc1ccc(S(=O)(=O)c2c(O)cc(C)c(NS(=O)(=O)c3ccc(Br)cc3)c2C)cc1`, the figure is inactive: 50%; as for `CC(=O)N1c2ccccc2C(=O)C1N1CCN(c2ccccc2F)CC1` (centres undefined), inactive: 90%. Next, `COc1ccc(-c2noc(CN(C)S(=O)(=O)c3c(C)cc(C)cc3C)n2)cc1OC`: inactive: 45%. Next, `CCC(C(=O)Nc1cccc(Cl)c1C)n1nc(C)c2sc3ccccc3c2c1=O` (centres undefined): inactive: 72%; `COc1ccc(C)cc1NC(=O)c1ccc(NS(=O)(=O)c2c(C)noc2C)cc1`: inactive: 83%; `Cc1[nH]n(-c2ccccc2)c(=O)c1/C=N/NC(=O)c1ccccc1`: inactive: 50%.

As to `Cc1ccc(-c2nc(CCNC(=O)c3ccc(C)c(C)c3)cs2)cc1`, the survival is inactive: 88%. Take `CCOC(=O)c1ccc(NC2=CC(c3ccc(OCC)cc3)N(c3ccc(C(=O)OCC)cc3)C2=O)cc1` (centres undefined): the survival was inactive: 59%.

On to `CCOC(=O)c1cnc2cc(C(F)(F)F)ccc2c1Nc1cc(C)ccc1OC`, for which the survival is inactive: 71%. As for `CC(C)(C)OC(=O)N1CCC(c2c(C(=O)NCc3ccccc3)cnn2-c2cccc(F)c2)CC1`, the figure is inactive: 108%; as for `CCCCn1cc(S(=O)(=O)c2ccc(C)cc2)c(=O)c2cc(F)c(N3CCCCC3)cc21`, inactive: 90%; as for `Cc1cc(O)c(C(c2ccccc2)N2CCCCC2)c(=O)n1Cc1ccco1` (centres undefined), inactive: 80%.
